The values below come from publication PMC11995724, “Antibiotic target discovery by integrated phenotypic and activity-based profiling of electrophilic fragments” (Cell chemical biology, 2025).

The campaign covered roughly 3,200 compounds. About 75 (2%) showed an effect of 50% or more. This is one part of the list.

In the test the test system is T1, S. aureus MSSA476.
T1 construct: MSSA476
Further details: species or system S. aureus MSSA476 (TSB) or V. cholerae SAD30 (LB); 384-well bacterial growth screen at 25 uM, OD600 relative to DMSO control. The note with it: relative growth, OD600, TSB; 25 µM; inhibitor.
For the molecule `CCN(CC)S(=O)(=O)c1ccc(Cl)c(NC(=O)C(C)Cl)c1` (centres unmarked) [6-C20, 2-chloro-N-[2-chloro-5-(diethylsulfamoyl)phenyl]propanamide], the “% of control remaining” value worked out at 105.512%.

Regarding `CC(Cc1c[nH]c2cc(F)c(F)cc12)NC(=O)CCl` (centres unmarked) [5-I07, 2-chloro-N-[1-(5,6-difluoro-1H-indol-3-yl)propan-2-yl]acetamide], the “% of control remaining” value came to 83.7887%.

In the case of `C=CC(=O)Nc1ccc(C(N)=O)cc1C` [1-P06, 3-methyl-4-(prop-2-enamido)benzamide], the “% of control remaining” value is given as 92.1319%.

As to `CC(Cl)C(=O)N1CCCCC1C1CCCN(C(=O)C(F)(F)F)C1` (centres unmarked) [6-F16, 2-chloro-1-[1'-(2,2,2-trifluoroacetyl)-[2,3'-bipiperidin]-1-yl]propan-1-one], the “% of control remaining” value worked out at 96.2927%.

On to `O=C(CCl)C1CC12CCCCC2` (centres unmarked) [10-A19, 2-chloro-1-{spiro[2.5]octan-1-yl}ethan-1-one], for which the “% of control remaining” value is given as 138.75%.

Turning to `O=C(CCl)Nc1cc(S(=O)(=O)N2CCCCC2)ccc1Cl` [4-F09, 2-chloro-N-[2-chloro-5-(piperidine-1-sulfonyl)phenyl]acetamide], the “% of control remaining” value was determined as 124.631%.

On to `Cc1ccc(C=C(C#N)C(=O)NCCc2ccccc2)o1` [8-H12, 2-cyano-3-(5-methylfuran-2-yl)-N-(2-phenylethyl)prop-2-enamide], for which the “% of control remaining” value is given as 99.2531%.

With `O=C(CCl)N1CCN(C(=O)CC(F)(F)F)CC1` [5-A08, 1-[4-(2-chloroacetyl)piperazin-1-yl]-3,3,3-trifluoropropan-1-one], the “% of control remaining” value was 113.297%.

Turning to `Cc1ccc(F)c(N2CCC(NC(=O)CCl)CC2)c1` [5-M14, 2-chloro-N-[1-(2-fluoro-5-methylphenyl)piperidin-4-yl]acetamide], the “% of control remaining” value stood at 67.3953%.

`C=CC(=O)N1CCC(C(=O)NC(C)(C)CSC)CC1` [3-M14, N-[2-methyl-1-(methylsulfanyl)propan-2-yl]-1-(prop-2-enoyl)piperidine-4-carboxamide]: the “% of control remaining” value was found to be 90.9012%.

On to `C=CC(=O)NC1(c2ccccc2)CCOC1` (centres unmarked) [3-P04, N-(3-phenyloxolan-3-yl)prop-2-enamide], for which the “% of control remaining” value stood at 87.0701%.

On to `CCN(CC)S(=O)(=O)c1cc(NC(=O)CCl)ccc1C` [4-E09, 2-chloro-N-[3-(diethylsulfamoyl)-4-methylphenyl]acetamide], for which the “% of control remaining” value came to 102.525%.

In the case of `CC1CSc2ccc(Cl)cc2N(C(=O)CCl)C1` (centres unmarked) [5-J05, 2-chloro-1-(7-chloro-3-methyl-2,3,4,5-tetrahydro-1,5-benzothiazepin-5-yl)ethan-1-one], the “% of control remaining” value was 95.4463%.

On to `CSc1nsc(NC(=O)CCl)n1` [4-C13, 2-chloro-N-[3-(methylsulfanyl)-1,2,4-thiadiazol-5-yl]acetamide], for which the “% of control remaining” value is recorded as 101%.

`CCN(Cc1ccc(C(F)(F)F)cc1)C(=O)CCl` [7-H20, 2-chloro-N-ethyl-N-{[4-(trifluoromethyl)phenyl]methyl}acetamide]: the “% of control remaining” value worked out at 141.915%.

As to `C=CC(=O)N1CCC(C(=O)NCc2cnn(-c3ccccc3)c2)CC1` [3-O14, N-[(1-phenyl-1H-pyrazol-4-yl)methyl]-1-(prop-2-enoyl)piperidine-4-carboxamide], the “% of control remaining” value amounted to 81.8459%.

Regarding `COc1ccc(NC(=O)CCl)cc1S(=O)(=O)N1CCCCC1` [4-B08, 2-chloro-N-[4-methoxy-3-(piperidine-1-sulfonyl)phenyl]acetamide], the “% of control remaining” value was determined as 103.287%.

`C=CC(=O)NC(Cn1ccccc1=O)c1ccccc1` (centres unmarked) [2-B21, N-[2-(2-oxo-1,2-dihydropyridin-1-yl)-1-phenylethyl]prop-2-enamide]: the “% of control remaining” value is 144.822%.

Turning to `C=CC(=O)N1CCC(C(=O)N(C)C(C)Cc2ccc(C)cc2)CC1` (centres unmarked) [2-F14, N-methyl-N-[1-(4-methylphenyl)propan-2-yl]-1-(prop-2-enoyl)piperidine-4-carboxamide], the “% of control remaining” value is 119.06%.

In the case of `C=CC(=O)N1CCc2cc(C(N)=O)ccc21` [1-P03, 1-(prop-2-enoyl)-2,3-dihydro-1H-indole-5-carboxamide], the “% of control remaining” value was 97.0549%.

On to `Cc1cc(C(=O)C(C)Cl)c(C)n1-c1ccccc1` (centres unmarked) [10-A06, 2-chloro-1-(2,5-dimethyl-1-phenyl-1H-pyrrol-3-yl)propan-1-one], for which the “% of control remaining” value is listed as 94.6875%.

As for `COc1ccc(NC(=O)C(C#N)=Cc2ccc(-c3ccccc3)cc2)cc1` [8-D11, 3-{[1,1'-biphenyl]-4-yl}-2-cyano-N-(4-methoxyphenyl)prop-2-enamide], the “% of control remaining” value was found to be 96.2656%.

On to `O=C(CCl)NCCc1cnn(-c2ccccc2)c1` [6-G22, 2-chloro-N-[2-(1-phenyl-1H-pyrazol-4-yl)ethyl]acetamide], for which the “% of control remaining” value came out at 95.9512%.

Turning to `CC(C)(C)c1ccc(CC(=O)CCl)cc1` [10-G19, 1-(4-tert-butylphenyl)-3-chloropropan-2-one], the “% of control remaining” value was determined as 132.5%.

On to `CCOc1ccc(NC(=O)CCl)cc1S(=O)(=O)N1CCCC1` [4-J16, 2-chloro-N-[4-ethoxy-3-(pyrrolidine-1-sulfonyl)phenyl]acetamide], for which the “% of control remaining” value is given as 139.876%.

As to `CCS(=O)(=O)N1CCc2cc(C(=O)CCl)ccc21` [10-E18, 2-chloro-1-[1-(ethanesulfonyl)-2,3-dihydro-1H-indol-5-yl]ethan-1-one], the “% of control remaining” value was 0.3125%.

On to `C=CC(=O)N1CCC(C(=O)NC(C)CC2CC2)CC1` (centres unmarked) [3-M05, N-(1-cyclopropylpropan-2-yl)-1-(prop-2-enoyl)piperidine-4-carboxamide], for which the “% of control remaining” value is recorded as 90.5529%.

In the case of `N#CC(=Cc1ccc(-c2ccccc2)cc1)C(=O)N1CCCC1` [9-B08, 3-{[1,1'-biphenyl]-4-yl}-2-(pyrrolidine-1-carbonyl)prop-2-enenitrile], the “% of control remaining” value stood at 103.071%.

Consider `N#CC(=Cc1cc(F)ccc1F)C(=O)Nc1ccc(Cl)cc1Cl` [8-O08, 2-cyano-N-(2,4-dichlorophenyl)-3-(2,5-difluorophenyl)prop-2-enamide], for which the “% of control remaining” value came out at 92.9461%.
